Results on 69 molecules are retold here after PubChem BioAssay AID488969 (Vanderbilt High Throughput Screening Facility, 2010).

The full ranking holds about 110,000 compounds; the median of “z-score” is about -0.1, and the highest 2% start at about 2. This is one part of the list.

This assay concerns the target Metabotropic glutamate receptor 8 (Rattus norvegicus) (UniProt P70579). Description: rat mGluR8 modulators via GIRK flux, primary screen, cell-based, thallium flux, HTS (AID 488969). The settings on record: HEK293 rat mGluR8, GIRK (G protein-gated inwardly rectifying potassium channel) thallium flux, FluoZin2; at 10 µM; stronger effect = higher value; submaximal glutamate (EC20) added with thallium.
Sequence of UniProt P70579 (P70579 whole entry, looked up): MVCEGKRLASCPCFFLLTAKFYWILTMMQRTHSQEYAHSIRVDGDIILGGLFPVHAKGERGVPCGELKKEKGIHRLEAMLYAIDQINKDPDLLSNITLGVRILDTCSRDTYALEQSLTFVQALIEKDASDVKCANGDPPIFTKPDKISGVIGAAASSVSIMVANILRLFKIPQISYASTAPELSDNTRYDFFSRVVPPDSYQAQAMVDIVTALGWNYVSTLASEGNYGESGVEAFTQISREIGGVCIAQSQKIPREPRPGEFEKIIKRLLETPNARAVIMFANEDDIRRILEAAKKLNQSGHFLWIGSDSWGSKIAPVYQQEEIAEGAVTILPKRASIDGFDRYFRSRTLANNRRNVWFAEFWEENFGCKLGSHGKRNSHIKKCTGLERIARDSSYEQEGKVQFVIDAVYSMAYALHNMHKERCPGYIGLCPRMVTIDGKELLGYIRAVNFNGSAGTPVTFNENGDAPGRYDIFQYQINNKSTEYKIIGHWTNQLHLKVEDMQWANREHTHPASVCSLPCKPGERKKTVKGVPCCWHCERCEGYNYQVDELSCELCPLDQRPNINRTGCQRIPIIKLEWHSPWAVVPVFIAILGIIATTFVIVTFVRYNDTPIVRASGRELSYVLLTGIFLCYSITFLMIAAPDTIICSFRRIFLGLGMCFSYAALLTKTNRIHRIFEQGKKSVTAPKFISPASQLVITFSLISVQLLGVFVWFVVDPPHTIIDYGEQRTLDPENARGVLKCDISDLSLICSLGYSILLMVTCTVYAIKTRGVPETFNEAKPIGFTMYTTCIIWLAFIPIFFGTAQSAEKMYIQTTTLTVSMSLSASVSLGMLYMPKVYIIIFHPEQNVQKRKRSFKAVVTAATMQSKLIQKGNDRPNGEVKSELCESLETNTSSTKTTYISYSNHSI
Consider `COc1ccc(-c2[nH]nc3c2C(c2ccc(OC(=O)N4CCOCC4)cc2)C(C#N)=C(N)O3)cc1` (centres undefined), for which the z-score was -0.365.

Molecule `CCN(CC)CCOc1nnc(-c2ccc(C)cc2)c2ccccc12` returned a z-score of 1.19.

With `COC(=O)c1[nH]c2c(c1C)C(=O)CC(c1ccc(C)cc1)C2` (centres undefined), the z-score was -0.49.

The molecule `COc1cccc(OCCNC(=O)c2ccccc2Sc2ccccc2C#N)c1` returned a z-score of -0.266.

For the molecule `COc1ccc(N(CC(=O)NCc2cccs2)S(=O)(=O)c2c(C)n[nH]c2C)cc1`, the z-score was -0.505.

In the case of `CC1=CN2C(=N)/C(=C/c3ccc([N+](=O)[O-])o3)C(=O)N=C2S1`, the z-score was -0.394.

`COC(=O)c1cccc(NC(=O)CSc2nc3cccnc3n2C)c1`: the z-score is -0.0491.

`CC(C)(C)c1cccc(OCCCSc2ncccn2)c1`: the z-score was -0.207.

Molecule `Cc1cc(C)nc(N2CCCC(C(=O)Nc3nnc(C(C)C)s3)C2)n1` (centres undefined) had a z-score of -0.0456.

Regarding `CSc1nsc(SCC(=O)Nc2nc3ccc(C)cc3s2)n1`, the z-score was -0.0744.

The molecule `COc1ccc([N+](=O)[O-])cc1NC(=S)NC(NC(=O)Cc1ccc(OC)c(OC)c1)C(Cl)(Cl)Cl` (centres undefined) returned a z-score of -0.227.

`Cn1nc(-c2ccc(Cl)cc2)c2cc(C(=O)NCCN3CCOCC3)sc21`: the z-score was 0.173.

`CC(=O)N1CC2(C)CN(C(C)=O)CC(C)(C1)C2O` (centres undefined) registered a z-score of -0.104.

The molecule `CCNS(=O)(=O)c1ccc(NC(=O)c2cc(C(F)(F)F)nn2C)cc1` came in with a z-score of -0.301.

For `O=C(NC(=S)Nc1nc(-c2cccc3ccccc23)cs1)c1cc2ccccc2o1`, the z-score is 0.00499.

The molecule `CCOc1cccc(NC(=O)CSc2nc(C)c3c(c2C#N)CCCC3)c1` gave a z-score of 0.548.

With `C=CCn1c(O)c(N=NC(=O)CNC(=O)c2cccs2)c2ccccc21`, the z-score was -0.247.

Turning to `COc1ccc(CCn2c(N3CCOCC3)nc3c2c(=O)[nH]c(=O)n3C)cc1`, the z-score was -0.0892.

`Cn1nc(CC(=O)NC2CCCCC2)c2ccccc2c1=O`: the z-score was -0.0244.

`COc1cc(/C=N/NC(=S)NCc2ccco2)cc(OC)c1OC` showed a z-score of -0.66.

`Cc1ccc(S(=O)(=O)N2CC3(C)CN(S(=O)(=O)c4ccc(C)cc4)CC(C)(C2)C3=O)cc1` showed a z-score of 0.0212.

The molecule `CCC(C)(C(=O)NC1CCCCC1)N(Cc1cccs1)C(=O)Cc1cccs1` (centres undefined) returned a z-score of -0.648.

Consider `CC(C)COCC(O)CCC(=O)NNC(=S)Nc1ccccc1` (centres undefined), for which the z-score came out at 0.0799.

On to `CCc1nnc(NS(=O)(=O)c2ccc(N/C=C\C(=O)c3ccc4ccccc4c3)cc2)s1`, for which the z-score was -0.277.

`CC(C)Cn1ccc(=O)n(CC(C)C)c1=O` yielded a z-score of 0.347.

In turn, `CCn1c(COc2ccc(=O)n(-c3ccccc3)n2)nnc1SCc1ccc(OC)cc1` displayed a z-score of -0.486.

On to `Cc1ccc(S(=O)(=O)Nc2cc(=O)[nH]c(SCc3ccc(Cl)cc3)n2)cc1`, for which the z-score is -0.142.

Regarding `COC(=O)c1ccc2c(=O)n(CCCN3CCCC3=O)c(=S)[nH]c2c1`, the z-score was determined as 0.11.

Consider `CS(=O)(=O)N1CCC(C(=O)NCCC2=CCCCC2)CC1`, for which the z-score came to 0.682.

`CC(=O)c1ccc(N2CCCC2)c(F)c1` gave a z-score of 2.4.

For `CCCCN(C)CCC(=O)Nc1ccc(F)c(F)c1`, the z-score is -0.212.

The molecule `CCOC(=O)c1c(C)[nH]sc1=S` had a z-score of 0.451.

Turning to `COc1ccc(C(=O)NC(=S)Nc2ccc([N+](=O)[O-])cc2C)cc1OC`, the z-score turned out to be 1.42.

In the case of `CCOc1ccc(NC(=O)Nc2ccc3nccnc3c2)cc1`, the z-score was -0.163.

For `Cc1ccc2c(c1)CCCN2C(=O)Nc1ccc2c(c1)OCO2`, the z-score is -0.378.

Turning to `COc1ccc2c(c1OC)C(=O)OC2Nc1nc(-c2ccc(-c3ccccc3)cc2)cs1` (centres undefined), the z-score was -0.242.

`COC(=O)C(N)Cc1ccc(O)cc1` (centres undefined) returned a z-score of -0.377.

As for `COC(=O)c1ccc(CSc2nnc(CNC(=O)c3cccs3)o2)o1`, the z-score is -0.239.

Molecule `O=C(O)C1C2C=CC(C2)C1C(=O)Nc1ccc2c(c1)OCCO2` (centres undefined) registered a z-score of -0.0164.

In the case of `O=C1C2CCCN2C(c2ccccc2F)N1c1cccc(Cl)c1` (centres undefined), the z-score stood at 0.05.

In the case of `CCOC(=O)C(CC)/C(C)=N\NC(=O)c1ccccc1O` (centres undefined), the z-score was -0.097.

In turn, `CN1c2ccccc2C(C)(C)C12CC(c1ccc(Cl)c(S(=O)(=O)N3CCCC3)c1)=NO2` (centres undefined) showed a z-score of -0.0734.

`O=c1oc2cc(OCc3c(F)c(F)c(F)c(F)c3F)ccc2cc1-c1ccccn1` gave a z-score of -0.0107.

`Cc1onc(-c2c(F)cccc2Cl)c1C(=O)Nc1nc2c(s1)CCCC2` had a z-score of -0.0855.

`O=C(CCC(=O)OCc1ccc(C(=O)Oc2ccccc2)cc1)Nc1cccc2ccccc12` returned a z-score of -0.345.

`CCC1=NC(c2ccc(OC)cc2OC)N(O)C1(C)C` (centres undefined) returned a z-score of -0.547.

In turn, `CCOC(=O)C1CCN(Cc2ccc(F)cc2F)CC1` returned a z-score of 0.242.

`O=C(NC(Nc1ncccn1)C(=O)c1ccccc1)c1ccccc1` (centres undefined) came in with a z-score of -0.81.

Molecule `COc1cccc(/C(C)=N/NC(=O)c2cc(-c3cccnc3)nc3ccccc23)c1` showed a z-score of -0.465.

For the molecule `N#Cc1c(SCC(=O)N2CCOCC2)nsc1SCC(=O)N1CCOCC1`, the z-score is 0.366.

`Cc1nc(SCC(=O)Nc2cc(Cl)ccc2[N+](=O)[O-])nc(C)c1C` displayed a z-score of -0.447.

Take `O=C(CCNc1cccc(C(F)(F)F)c1)c1ccco1`: the z-score is 0.394.

`CCC1CSC(Nc2ccc(C(=O)/C=C/c3ccc(Br)cc3)cc2)=N1` (centres undefined) came in with a z-score of 0.0423.

`O=C(NC(=S)Nc1ccc(N2CCOCC2)c(Cl)c1)C(c1ccccc1)c1ccccc1` registered a z-score of 0.604.

Consider `OCCN(/C=N/c1nc(-c2ccc(Br)cc2)cs1)CCO`, for which the z-score was determined as 0.088.

Molecule `COC(=O)c1sc2ccccc2c1NC(=O)c1ccc(S(=O)(=O)N2CC(C)CC(C)C2)cc1` (centres undefined) gave a z-score of 0.0183.

In the case of `CCc1c(C)c2ccc(OCC(N)=O)cc2oc1=O`, the z-score was -0.195.

Molecule `CC1CN(S(=O)(=O)c2cccc(C(=O)NCc3ccc4c(c3)OCO4)c2)CC(C)O1` (centres undefined) gave a z-score of -0.123.

For `O=C(c1ccc(COc2ccccc2Cl)o1)N1CCCC1`, the z-score was -1.8.

`CC(=O)Cc1nsc(NC(=O)c2ccc(-c3cc(C(F)(F)F)ccc3Cl)o2)n1` registered a z-score of 0.485.

Molecule `COc1ccc(/C=C/C(=O)Nc2c(C)nn(C)c2C)cc1COc1ccc(Br)cc1` yielded a z-score of 0.177.

For the molecule `CCCCN(CC)CCNc1c(NC2CCN(C(=O)OCC)CC2)c(=O)c1=O`, the z-score was -1.21.

`C=CCOC(=O)C1=C(C)NC(=O)NC1c1ccc(Cl)cc1` (centres undefined) registered a z-score of -0.279.

`COc1ccc(F)cc1S(=O)(=O)NC1CCCC1` showed a z-score of 0.43.

`Cc1nnc2sc(SCC(=O)Nc3nccs3)nn2c1=O`: the z-score was -0.192.

With `O=C(CC(NS(=O)(=O)c1ccc(Cl)cc1)c1ccco1)N1CCc2ccccc21` (centres undefined), the z-score was -0.213.

Take `O=C(Oc1ccc(OC(=O)C2CCC2)cc1)C1CCC1`: the z-score is 0.114.

Molecule `Cc1ccc(S(=O)(=O)c2nc(-c3cccs3)oc2SCC(N)=O)cc1` returned a z-score of 0.451.

For the molecule `CCN1CCN(C(CNC(=O)c2ccc3c(c2)OCO3)c2cccnc2)CC1` (centres undefined), the z-score was -0.319.
